Data on 60 compounds can be found in PubChem BioAssay AID1508642 (National Center for Advancing Translational Sciences (NCATS), 2021).

Each structure is given as a SMILES string. Out of some 43,000 compounds screened, about 200 (0.47%) were called active. About 12% were inconclusive and are not listed. The call rests on the fitted dose curve; in most records, active means well fitted cell-killing curve with a large enough effect; inconclusive means small, poorly fitted or top-dose-only effect, or effect the other way; inactive means flat fitted curve, though single readings scatter. The list shows a part of the results.
On the % scale 0 is the no-effect control and ±100 the full control effect.

The nature of this experiment: Cell viability qHTS assay in S16 Pmp22-F2sN cells. Further: nearly all actives have a fitted effect of over 65% in size. The note with it: S16 Pmp22-F2sN Schwann cells (luciferase reporters placed in the Pmp22 gene) viability, CellTiter-Glo, 24 h; series mostly up to 57.5 µM; activity change, negative = cytotoxicity: at the top concentration. A digest of the protocol:
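Seed 500-1,000 S16 Pmp22-F2sN cells per well in phenol-red-free DMEM with 10% heat-inactivated FBS; pin-add 23 nL compound; incubate 24 h at 37C; add CellTiter-Glo, wait 15 min protected from light; read luminescence.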
Consider `COc1ccccc1N1CCN(C(=O)CNS(=O)(=O)c2ccc(Br)s2)CC1`, for which the “activity change, negative = cytotoxicity” value is inactive: -17.6%.

Take `Cc1nn(CCC(=O)Nc2ccccc2Br)c(=O)c2nn(-c3ccccc3)c(C)c12`: the “activity change, negative = cytotoxicity” value is inactive: -1.18%.

Take `Cc1cccc(CCNC(=O)CCS(=O)(=O)c2cc3c(cc2C)NC(=O)CO3)c1`: the “activity change, negative = cytotoxicity” value is inactive: 0.173%.

Take `CCc1nnc2c(Nc3ccccc3Br)nc3ccccc3n12`: the “activity change, negative = cytotoxicity” value was inactive: -0.0239%.

Regarding `Cc1cccc(N2C(=O)N(Cc3cccc(C#N)c3)c3ccccc3S2(=O)=O)c1`, the “activity change, negative = cytotoxicity” value is inactive: 19%.

Consider `O=C(Cn1c(=O)n(Cc2ccc(C(=O)NCc3ccc4c(c3)OCO4)cc2)c(=O)c2ccccc21)Nc1ccccc1F`, for which the “activity change, negative = cytotoxicity” value is inactive: 3.32%.

Take `CCCNC(=O)c1c(NC(=O)c2ccccc2)sc2c1CCC(C(C)(C)C)C2` (stereo not given): the “activity change, negative = cytotoxicity” value is inactive: -8.18%.

For the compound `COc1ccc(CCNC(=O)CS(=O)(=O)Cc2nc(-c3cccc(Cl)c3)oc2C)cc1OC`, the “activity change, negative = cytotoxicity” value is inactive: 5.75%.

For `COc1ccc(CNC(=O)c2cccn2-c2nnc(N3CCCCC3)s2)c(OC)c1`, the “activity change, negative = cytotoxicity” value was inactive: -1.16%.

As to `COc1ccc2c(c1)c1c(c(=O)n(-c3cccc(C)c3)c(=O)n1CC(=O)NCc1ccc(C)cc1)n2C`, the “activity change, negative = cytotoxicity” value was inactive: -1.8%.

With `CC(C)(C)c1ccc(C(=O)NC(Cc2c[nH]c3ccccc23)C(=O)OCC(=O)c2ccc(Br)cc2)cc1` (stereo not given), the “activity change, negative = cytotoxicity” value was inactive: -0.339%.

Consider `CC(C)N(Cc1nc(-c2ccc(Cl)cc2)no1)C(=O)c1ccco1`, for which the “activity change, negative = cytotoxicity” value is inactive: 27.8%.

Consider `COc1ccc(-n2ccn(CC(=O)Nc3ccc(C)cc3C)c(=O)c2=O)cc1`, for which the “activity change, negative = cytotoxicity” value was inactive: 8.32%.

For `COc1ccc(CNC(=O)c2sc3nc4n(c(=O)c3c2C)CCC4)cc1`, the “activity change, negative = cytotoxicity” value is inactive: 11.3%.

Take `CCCc1nnc(NC(=O)C(CC)Sc2nnc3c4ccccc4n(C)c3n2)s1` (stereo not given): the “activity change, negative = cytotoxicity” value was inactive: 0.256%.

Take `Cc1ccc(C(C)C)c(OCC(=O)Nc2ccc(O)c(-c3nc4cc(Cl)ccc4o3)c2)c1`: the “activity change, negative = cytotoxicity” value is inactive: 6.37%.

With `COC(=O)c1c(C)sc(-c2c(-c3ccc(OC)c(F)c3)[nH]c3c2c(=O)n(C)c(=O)n3C)c1O`, the “activity change, negative = cytotoxicity” value is inactive: 14.7%.

In the case of `CC(C)C(=O)Nc1nnc(S(=O)(=O)N2c3ccccc3CC2C)s1` (stereo not given), the “activity change, negative = cytotoxicity” value is inactive: -1.28%.

Take `COc1cccc(C(c2sc3nc(-c4ccco4)nn3c2O)N2CCN(C)CC2)c1` (stereo not given): the “activity change, negative = cytotoxicity” value was inactive: 18.1%.

Consider `COc1ccc(CNC(=O)CN(C)S(=O)(=O)c2ccc3c(c2)c(=O)n(C)c(=O)n3C)cc1`, for which the “activity change, negative = cytotoxicity” value is inactive: 6.9%.

Consider `CCS(=O)(=O)Nc1ccc(-c2cn3c(C)csc3n2)cc1`, for which the “activity change, negative = cytotoxicity” value is inactive: 7.51%.

As for `COc1ccc(C(=O)Oc2cc(-c3ccc(OC)c(OC)c3)cc(=O)c3c(C)oc(C)c23)cc1`, the “activity change, negative = cytotoxicity” value was inactive: -9.06%.

On to `CCOC(=O)c1c(-c2ccccc2)oc2ccc(OCc3cccc(Br)c3)cc12`, for which the “activity change, negative = cytotoxicity” value is inactive: 8.58%.

Consider `O=C(Cn1cc(C(=O)c2cccs2)c2ccccc21)Nc1ccc(Br)cc1`, for which the “activity change, negative = cytotoxicity” value is inactive: -8.18%.

With `CCN(c1cccc(C)c1)S(=O)(=O)c1c(C)nc2sc(C)cn2c1=O`, the “activity change, negative = cytotoxicity” value was inactive: 11.2%.

For `COc1ccccc1CNC(=O)C1CCN(c2nnc(C)c3c(C)n(-c4ccccc4)nc23)CC1`, the “activity change, negative = cytotoxicity” value is inactive: 3.69%.

For the compound `CC(C)CC(=O)OCc1cc(=O)n2nc(C3CCCCC3)sc2n1`, the “activity change, negative = cytotoxicity” value was inactive: 1.1%.

On to `Cc1ccc2c(=O)cc(C(=O)Nc3c(C(=O)c4ccc(F)cc4)oc4ccccc34)oc2c1C`, for which the “activity change, negative = cytotoxicity” value is inactive: 23.1%.

With `COc1ccc(NC(=O)CC(C)S(=O)(=O)c2cc3c(cc2C)NC(=O)CO3)cc1OC` (stereo not given), the “activity change, negative = cytotoxicity” value is inactive: 4.13%.

Take `O=C(Nc1nnc(S(=O)(=O)N2CCCCCC2)s1)c1ccc(Cl)cc1`: the “activity change, negative = cytotoxicity” value was inactive: -0.591%.

With `COc1ccc(Nc2c(-c3ccsc3)nc3nc(C)cc(C)n23)cc1`, the “activity change, negative = cytotoxicity” value was inactive: -10.4%.

As to `Cc1ccc(NC(=O)CN2C(=O)CC(c3ccc(C)c(C)c3)=Nc3ccccc32)cc1`, the “activity change, negative = cytotoxicity” value is inactive: 7.94%.

Consider `CCC(CC)C(=O)Nc1cc(-c2nc3cccnc3s2)ccc1C`, for which the “activity change, negative = cytotoxicity” value was inactive: 10.3%.

In the case of `Cc1cccc(C)c1OC(=O)CSc1nnc(-c2ccc3c(c2)OCO3)o1`, the “activity change, negative = cytotoxicity” value was inactive: 2.91%.

With `CCOC(=O)Cn1c(=O)oc2cc(S(=O)(=O)N3CCN(c4ccc(F)cc4)CC3)ccc21`, the “activity change, negative = cytotoxicity” value is inactive: -0.729%.

On to `Cn1c(C(=O)NCc2cccc(Cl)c2)cc2oc3ccccc3c21`, for which the “activity change, negative = cytotoxicity” value is inactive: -8.82%.

As to `CC(=O)c1ccc(N2CCN(C(=O)CCCn3c(=O)[nH]c4ccsc4c3=O)CC2)cc1`, the “activity change, negative = cytotoxicity” value is inactive: 1.04%.

Regarding `O=[N+]([O-])c1ccc(O)c(-c2ccnc3cc(-c4ccccc4)nn23)c1`, the “activity change, negative = cytotoxicity” value is inactive: -5.89%.

For `COCCCNC(=O)c1ccc(Cn2c(=O)c3cccn3c3cccnc32)cc1`, the “activity change, negative = cytotoxicity” value was inactive: -14.3%.

Regarding `Cc1nn(CC(=O)NCc2ccc(N(C)C)cc2)c(=O)c2nn(-c3ccccc3)c(C)c12`, the “activity change, negative = cytotoxicity” value was inactive: 4.55%.

Consider `COc1ccccc1N1CCN(c2cc(C)nc3nncn23)CC1`, for which the “activity change, negative = cytotoxicity” value was inactive: -14%.

For `CCOc1ccc(CNC(=O)CSc2c3c(nc4ccc(Cl)cc24)CCCC3)cc1`, the “activity change, negative = cytotoxicity” value is inactive: 14.8%.

As to `Cc1ccc(CNC(=O)Cn2c3ncccc3c(=O)n2-c2ccc(C)cc2)cc1`, the “activity change, negative = cytotoxicity” value is inactive: 2.12%.

As for `Cc1nc2c(c(C)nn2C(C)(C)C)c(C)c1CCC(=O)Nc1ccc(F)cc1`, the “activity change, negative = cytotoxicity” value is inactive: 17.8%.

On to `Cc1nn2c(=O)cc(COC(=O)c3ccc(NC(=O)COc4ccccc4F)cc3)nc2s1`, for which the “activity change, negative = cytotoxicity” value was inactive: 3.23%.

As for `Cc1ccc(-n2c(SCC(=O)c3ccccc3)nc3c([nH]c4ccccc43)c2=O)cc1`, the “activity change, negative = cytotoxicity” value is inactive: 13.2%.

For `CC(C)C(=O)Nc1ccc2nc(SCC(=O)N3CCc4ccccc43)sc2c1`, the “activity change, negative = cytotoxicity” value is inactive: 11.5%.

With `COc1ccccc1CC(=O)Nc1ccc2nc(Nc3cccc(Cl)c3)cc(C)c2c1`, the “activity change, negative = cytotoxicity” value is inactive: -1.27%.

Consider `CCC(=O)N1CCc2cc(S(=O)(=O)Nc3cc(C)ccc3OC)ccc21`, for which the “activity change, negative = cytotoxicity” value was inactive: -8.85%.

As to `COc1cccc(NC(=O)Cn2c(=O)n(CCCCC(=O)NCc3ccccc3Cl)c(=O)c3ccccc32)c1`, the “activity change, negative = cytotoxicity” value is inactive: 14.3%.

Turning to `CCCCC(Sc1nc2cc3c(cc2c(=O)n1CCCC(=O)NCc1ccc2c(c1)OCO2)OCO3)C(=O)OCC` (stereo not given), the “activity change, negative = cytotoxicity” value was inactive: 5.05%.

On to `O=C(CSc1ncc(S(=O)(=O)c2ccc(Br)cc2)c(=O)[nH]1)Nc1ccc2c(c1)OCCO2`, for which the “activity change, negative = cytotoxicity” value is inactive: 5.88%.

For the compound `CC1CCN(C(=O)CSc2nc3ccccc3nc2Cc2ccccc2)CC1`, the “activity change, negative = cytotoxicity” value is inactive: 13.5%.

Take `CCOc1ccccc1N1CCN(S(=O)(=O)c2ccc(C3CCCCC3)cc2)CC1`: the “activity change, negative = cytotoxicity” value is inactive: 6.46%.

Turning to `COc1ccccc1CNC(=O)c1ccc2c(c1)N(Cc1c(F)cccc1Cl)C(=O)CS2`, the “activity change, negative = cytotoxicity” value is inactive: 3.36%.

As for `O=C(Nc1ccc2oc(-c3cccc(F)c3)nc2c1)c1ccc2ccccc2c1`, the “activity change, negative = cytotoxicity” value was inactive: -0.493%.

`CC(C)c1ccc(NC(=O)Cn2cc(S(=O)(=O)Cc3ccccc3Cl)c3ccccc32)cc1`: the “activity change, negative = cytotoxicity” value is inactive: -12.4%.

On to `CCOC(=O)c1c(S(=O)(=O)N2CCC(C(=O)Nc3ccc(F)cc3F)CC2)c(C)n(C)c1C`, for which the “activity change, negative = cytotoxicity” value is inactive: -1.31%.

In the case of `COc1ccc(Cn2c(CO)cnc2SCc2ccccc2C)cc1`, the “activity change, negative = cytotoxicity” value is inactive: -0.827%.

In the case of `COc1ccc(CNC(=O)Cc2c(C)c3cc4c(C)coc4c(C)c3oc2=O)cc1OC`, the “activity change, negative = cytotoxicity” value was inactive: 6.17%.
